# Reference: the supplement of paper PMC6531468
# This is one part of the list. Values come from read counts of a selection and are noisy. Scores sum up all selected molecules that hold the word; the word was not tested alone.
# System: IMP3 KH1-4
# Assay: 6-mer SELEX enrichment z-score vs GST control; IMP3 is the RNA-binding protein IGF2BP3; higher = more enriched by binding
# Conditions: construct: KH1-4 (164-579); SELEX round: R4
# Protocol: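 SELEX-seq with GST-tagged IMP3 KH1-4 (Pro164-Lys579) and an N40 RNA pool, round 4. 6-mer z-score of sequence-tag enrichment normalised to the corresponding GST SELEX round; RNA k-mers written as DNA (T for U).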
# Chain of IMP3 KH1-4 (chain, as listed by the source): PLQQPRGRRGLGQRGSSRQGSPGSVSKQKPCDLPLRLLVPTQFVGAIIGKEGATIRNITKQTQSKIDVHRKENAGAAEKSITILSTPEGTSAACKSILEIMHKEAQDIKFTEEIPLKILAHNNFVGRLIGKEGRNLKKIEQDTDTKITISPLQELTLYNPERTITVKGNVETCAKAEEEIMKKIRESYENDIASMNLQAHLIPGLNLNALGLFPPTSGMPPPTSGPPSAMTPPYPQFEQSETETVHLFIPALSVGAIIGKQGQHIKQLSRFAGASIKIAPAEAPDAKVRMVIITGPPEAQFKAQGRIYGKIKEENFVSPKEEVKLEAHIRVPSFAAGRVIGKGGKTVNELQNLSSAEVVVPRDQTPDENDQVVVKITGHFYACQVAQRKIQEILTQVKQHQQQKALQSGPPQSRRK
row,Sequence,6-mer SELEX enrichment z-score
1,GTGACG,-0.103
2,CGACGC,-1.73
3,TCTTCT,0.559
4,GTTATT,0.308
5,AGACCC,-1.6
6,AGCATC,0.311
7,AGACAG,0.546
8,TGTAAC,0.07
9,TATTCG,0.26
10,CGCCAA,-0.739
11,TAGCCA,-0.309
12,GCAAAG,-0.352
13,CGGGAA,-0.107
14,GCCAAA,-1.2
15,GCGCTA,-0.413
16,AGAGAT,0.705
17,CCTGGG,-0.804
18,ACAACT,0.646
19,GGCGGG,0.507
20,AGGGGT,0.492

row,Sequence,6-mer SELEX enrichment z-score
1,CTAGTA,-0.127
2,TTCCAT,1.22
3,CCACGT,-0.821
4,TATTGA,0.63
5,AACGTC,-1.4
6,GGTTGG,0.182
7,TGCTGG,0.323
8,GAGCGG,-0.906
9,TGAAGA,0.676
10,CTCTGT,0.19
11,AATCAT,1.55
12,CAACTG,-0.168
13,CTCGTG,-1.05
14,GCGAAA,-1.4
15,ATCTGG,-0.146
16,CACTAA,1.45
17,GCACTC,-0.343
18,GTCTCT,-0.197
19,GAGGAG,0.813
20,AAGGGC,-0.622
